# Experiments:
# Type in all cases: cell-based
# E. coli DH5α = test: Antibacterial activity: MIC and growth curve against E. coli DH5α in 96-well plate; settings: minimal inhibitory concentration against E. coli DH5α, 5×10^5 CFU/mL, 37° C., judged after 8 h
# In short: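 Log-phase bacteria (OD600 ~0.5) resuspended in LB at 5×10^5 CFU/mL, exposed to recombinant protein at 50, 25, 12.5 μg/mL final in triplicate, 37 °C shaking at 175 rpm. OD600 read every 30 min; MIC is lowest concentration showing no growth.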
# Moraxella catarrhalis = test: MIC against Gram-negative bacteria: Moraxella catarrhalis; settings: for MIC M. catarrhalis / MIC against M. catarrhalis: 96-well plate, 37° C., 10 h; for MIC M. catarrhalis / MIC (μg/mL) M. catarrhalis / MIC against M. catarrhalis: 5×10^5 CFU/mL; for MIC (μg/mL) M. catarrhalis / MIC: 10 h cultivation at 37° C., M. catarrhalis
# In short: (§1)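 The recombinant human-originated EGF domain proteins were serially diluted two-fold against bacteria at 5×10^5 CFU/mL in LB medium. After shaken incubation at 37° C, the lowest concentration with no bacterial growth was recorded as the MIC.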
# Serratia marcescens = test: MIC against Gram-negative bacteria: Serratia marcescens; settings: for MIC S. marcescens / MIC against S. marcescens: 96-well plate, 37° C., 10 h; for MIC S. marcescens / MIC (μg/mL) S. marcescens / MIC against S. marcescens: 5×10^5 CFU/mL; for MIC (μg/mL) S. marcescens / MIC: 10 h cultivation at 37° C., S. marcescens
# In short: as §1
# Aeromonas hydrophila = test: MIC against Gram-negative bacteria: Aeromonas hydrophila; settings: for MIC A. hydrophila / MIC against A. hydrophila: 96-well plate, 37° C., 10 h; for MIC A. hydrophila / MIC (μg/mL) A. hydrophila / MIC against A. hydrophila: 5×10^5 CFU/mL; for MIC (μg/mL) A. hydrophila / MIC: 10 h cultivation at 37° C., A. hydrophila
# In short: as §1
# E. coli BL21 = test: MIC against Gram-negative bacteria: E. coli BL21; settings: for MIC E. coli BL21 / MIC against E. coli BL21: 96-well plate, 37° C., 10 h; for MIC E. coli BL21 / MIC (μg/mL) E. coli BL21 / MIC against E. coli BL21: 5×10^5 CFU/mL; for MIC (μg/mL) E. coli BL21 / MIC: 10 h cultivation at 37° C.
# In short: as §1
# Pseudomonas aeruginosa = test: MIC against Gram-negative bacteria: Pseudomonas aeruginosa; settings: for MIC P. aeruginosa / MIC against P. aeruginosa: 96-well plate, 37° C., 10 h; for MIC P. aeruginosa / MIC (μg/mL) P. aeruginosa / MIC against P. aeruginosa: 5×10^5 CFU/mL; for MIC (μg/mL) P. aeruginosa / MIC: 10 h cultivation at 37° C., P. aeruginosa
# In short: as §1
# Proteus vulgaris = test: MIC against Gram-negative bacteria: Proteus vulgaris; settings: for MIC P. vulgaris / MIC against P. vulgaris: 96-well plate, 37° C., 10 h; for MIC P. vulgaris / MIC (μg/mL) P. vulgaris / MIC against P. vulgaris: 5×10^5 CFU/mL; for MIC (μg/mL) P. vulgaris / MIC: 10 h cultivation at 37° C., P. vulgaris
# In short: as §1
# Klebsiella pneumonia = test: MIC against Gram-negative bacteria: Klebsiella pneumonia; settings: for MIC K. pneumonia / MIC against K. pneumonia: 96-well plate, 37° C., 10 h; for MIC K. pneumonia / MIC (μg/mL) K. pneumonia / MIC against K. pneumonia: 5×10^5 CFU/mL; for MIC (μg/mL) K. pneumonia / MIC: 10 h cultivation at 37° C., K. pneumonia
# In short: as §1
# Enterobacter cloacae = test: MIC against Gram-negative bacteria: Enterobacter cloacae; settings: for MIC E. cloacae / MIC against E. cloacae: 96-well plate, 37° C., 10 h; for MIC E. cloacae / MIC (μg/mL) E. cloacae / MIC against E. cloacae: 5×10^5 CFU/mL; for MIC (μg/mL) E. cloacae / MIC: 10 h cultivation at 37° C., E. cloacae
# In short: as §1
# Proteus mirabilis = test: MIC against Gram-negative bacteria: Proteus mirabilis; settings: for MIC P. mirabilis / MIC against P. mirabilis: 96-well plate, 37° C., 10 h; for MIC P. mirabilis / MIC (μg/mL) P. mirabilis / MIC against P. mirabilis: 5×10^5 CFU/mL; for MIC (μg/mL) P. mirabilis / MIC: 10 h cultivation at 37° C., P. mirabilis
# In short: as §1
# Citrobacter diversus = test: MIC against Gram-negative bacteria: Citrobacter diversus; settings: for MIC C. diversus / MIC against C. diversus: 96-well plate, 37° C., 10 h; for MIC C. diversus / MIC (μg/mL) C. diversus / MIC against C. diversus: 5×10^5 CFU/mL; for MIC (μg/mL) C. diversus / MIC: 10 h cultivation at 37° C., C. diversus
# In short: as §1
substance,measurement,setting,value
PRT666 (DDNECLRDPCKGKGRCINRVGSYSCFCYPGYTLATSGATQECQ; listed as Homo sapiens),MIC,E. coli DH5α,12.5 µg/mL
same,MIC M. catarrhalis,Moraxella catarrhalis,25 µg/mL
same,MIC S. marcescens,Serratia marcescens,25 µg/mL
same,MIC A. hydrophila,Aeromonas hydrophila,25 µg/mL
same,MIC E. coli BL21,E. coli BL21,25 µg/mL
same,MIC P. aeruginosa,Pseudomonas aeruginosa,50 µg/mL
same,MIC P. vulgaris,Proteus vulgaris,25 µg/mL
same,MIC K. pneumonia,Klebsiella pneumonia,25 µg/mL
same,MIC E. cloacae,Enterobacter cloacae,12.5 µg/mL
same,MIC P. mirabilis,Proteus mirabilis,12.5 µg/mL
same,MIC C. diversus,Citrobacter diversus,50 µg/mL
PRT228 (DIDECSQSPQPCGPNSSCKNLSGRYKCSCLDGFSSPTGNDWVPGKPGNFSCT; listed as Homo sapiens),MIC,E. coli DH5α,25 µg/mL
same,MIC (μg/mL) M. catarrhalis,Moraxella catarrhalis,50 µg/mL
same,MIC (μg/mL) S. marcescens,Serratia marcescens,25 µg/mL
same,MIC (μg/mL) A. hydrophila,Aeromonas hydrophila,12.5 µg/mL
same,MIC (μg/mL) E. coli BL21,E. coli BL21; E. coli BL21,12.5 µg/mL
same,MIC (μg/mL) P. aeruginosa,Pseudomonas aeruginosa,25 µg/mL
same,MIC (μg/mL) P. vulgaris,Proteus vulgaris,12.5 µg/mL
same,MIC (μg/mL) K. pneumonia,Klebsiella pneumonia,50 µg/mL
same,MIC (μg/mL) E. cloacae,Enterobacter cloacae,25 µg/mL
same,MIC (μg/mL) P. mirabilis,Proteus mirabilis,25 µg/mL
same,MIC (μg/mL) C. diversus,Citrobacter diversus,25 µg/mL
PRT1255 (DIDECENDYYNGGCVHECINIPGNYRCTCFDGFMLAHDGHNCL; listed as Homo sapiens),MIC,E. coli DH5α,12.5 µg/mL
same,MIC against M. catarrhalis,Moraxella catarrhalis; Moraxella catarrhalis,25 µg/mL
same,MIC against S. marcescens,Serratia marcescens; Serratia marcescens,12.5 µg/mL
same,MIC against A. hydrophila,Aeromonas hydrophila; Aeromonas hydrophila,50 µg/mL
same,MIC against E. coli BL21,E. coli BL21; E. coli BL21,50 µg/mL
same,MIC against P. aeruginosa,Pseudomonas aeruginosa; Pseudomonas aeruginosa,25 µg/mL
same,MIC against P. vulgaris,Proteus vulgaris; Proteus vulgaris,25 µg/mL
same,MIC against K. pneumonia,Klebsiella pneumonia; Klebsiella pneumonia,12.5 µg/mL
same,MIC against E. cloacae,Enterobacter cloacae; Enterobacter cloacae,25 µg/mL
same,MIC against P. mirabilis,Proteus mirabilis; Proteus mirabilis,50 µg/mL
same,MIC against C. diversus,Citrobacter diversus; Citrobacter diversus,12.5 µg/mL
PRT1245 (QGDECGIAVCEGNSTCSENEVCVRPGECRCRHGYFGANCD; listed as Homo sapiens),MIC,E. coli DH5α,50 µg/mL
same,MIC against M. catarrhalis,Moraxella catarrhalis; Moraxella catarrhalis,25 µg/mL
same,MIC against S. marcescens,Serratia marcescens; Serratia marcescens,12.5 µg/mL
same,MIC against A. hydrophila,Aeromonas hydrophila; Aeromonas hydrophila,25 µg/mL
same,MIC against E. coli BL21,E. coli BL21; E. coli BL21,12.5 µg/mL
same,MIC against P. aeruginosa,Pseudomonas aeruginosa; Pseudomonas aeruginosa,50 µg/mL
same,MIC against P. vulgaris,Proteus vulgaris; Proteus vulgaris,25 µg/mL
same,MIC against K. pneumonia,Klebsiella pneumonia; Klebsiella pneumonia,12.5 µg/mL
same,MIC against E. cloacae,Enterobacter cloacae; Enterobacter cloacae,50 µg/mL
same,MIC against P. mirabilis,Proteus mirabilis; Proteus mirabilis,50 µg/mL
same,MIC against C. diversus,Citrobacter diversus; Citrobacter diversus,12.5 µg/mL
PRT656 (DIDECEDYGDPVCGTWKCENSPGSYRCVLGCQPGFHMAPNGDCI; listed as Homo sapiens),MIC,E. coli DH5α,50 µg/mL
same,MIC M. catarrhalis,Moraxella catarrhalis,12.5 µg/mL
same,MIC S. marcescens,Serratia marcescens,12.5 µg/mL
same,MIC A. hydrophila,Aeromonas hydrophila,12.5 µg/mL
same,MIC E. coli BL21,E. coli BL21,12.5 µg/mL
same,MIC P. aeruginosa,Pseudomonas aeruginosa,50 µg/mL
same,MIC P. vulgaris,Proteus vulgaris,12.5 µg/mL
same,MIC K. pneumonia,Klebsiella pneumonia,12.5 µg/mL
same,MIC E. cloacae,Enterobacter cloacae,50 µg/mL
same,MIC P. mirabilis,Proteus mirabilis,25 µg/mL
same,MIC C. diversus,Citrobacter diversus,12.5 µg/mL
PRT1220 (DIDECLPSPCHSGGTCHNLVGGFSCSCPDGFTGRACE; listed as Homo sapiens),MIC,E. coli DH5α,12.5 µg/mL
same,MIC against M. catarrhalis,Moraxella catarrhalis; Moraxella catarrhalis,25 µg/mL
same,MIC against S. marcescens,Serratia marcescens; Serratia marcescens,25 µg/mL
same,MIC against A. hydrophila,Aeromonas hydrophila; Aeromonas hydrophila,25 µg/mL
same,MIC against E. coli BL21,E. coli BL21; E. coli BL21,25 µg/mL
same,MIC against P. aeruginosa,Pseudomonas aeruginosa; Pseudomonas aeruginosa,50 µg/mL
same,MIC against P. vulgaris,Proteus vulgaris; Proteus vulgaris,50 µg/mL
same,MIC against K. pneumonia,Klebsiella pneumonia; Klebsiella pneumonia,12.5 µg/mL
same,MIC against E. cloacae,Enterobacter cloacae; Enterobacter cloacae,25 µg/mL
same,MIC against P. mirabilis,Proteus mirabilis; Proteus mirabilis,12.5 µg/mL
same,MIC against C. diversus,Citrobacter diversus; Citrobacter diversus,50 µg/mL
PRT940 (NINECTESSCFNGGTCVDGINSFSCLCPVGFTGSFCL; listed as Homo sapiens),MIC,E. coli DH5α,12.5 µg/mL
same,MIC,Moraxella catarrhalis,50 µg/mL
same,MIC,Serratia marcescens,12.5 µg/mL
same,MIC,Aeromonas hydrophila,50 µg/mL
same,MIC,E. coli BL21; E. coli BL21,12.5 µg/mL
same,MIC,Pseudomonas aeruginosa,25 µg/mL
same,MIC,Proteus vulgaris,50 µg/mL
same,MIC,Klebsiella pneumonia,12.5 µg/mL
same,MIC,Enterobacter cloacae,12.5 µg/mL
same,MIC,Proteus mirabilis,12.5 µg/mL
same,MIC,Citrobacter diversus,12.5 µg/mL
PRT959 (DVNECLSGPCRNQATCLDRIGQFTCICMAGFTGTYCE; listed as Homo sapiens),MIC,E. coli DH5α,25 µg/mL
same,MIC,Moraxella catarrhalis,50 µg/mL
same,MIC,Serratia marcescens,50 µg/mL
same,MIC,Aeromonas hydrophila,50 µg/mL
same,MIC,E. coli BL21; E. coli BL21,50 µg/mL
same,MIC,Pseudomonas aeruginosa,25 µg/mL
same,MIC,Proteus vulgaris,25 µg/mL
same,MIC,Klebsiella pneumonia,12.5 µg/mL
same,MIC,Enterobacter cloacae,25 µg/mL
same,MIC,Proteus mirabilis,12.5 µg/mL
same,MIC,Citrobacter diversus,12.5 µg/mL
PRT892 (DIDECDPDPCHYGSCKDGVATFTCLCRPGYTGHHCE; listed as Homo sapiens),MIC,E. coli DH5α,25 µg/mL
same,MIC (μg/mL) M. catarrhalis,Moraxella catarrhalis,12.5 µg/mL
same,MIC (μg/mL) S. marcescens,Serratia marcescens,25 µg/mL
same,MIC (μg/mL) A. hydrophila,Aeromonas hydrophila,12.5 µg/mL
same,MIC (μg/mL) E. coli BL21,E. coli BL21; E. coli BL21,12.5 µg/mL
same,MIC (μg/mL) P. aeruginosa,Pseudomonas aeruginosa,25 µg/mL
same,MIC (μg/mL) P. vulgaris,Proteus vulgaris,25 µg/mL
same,MIC (μg/mL) K. pneumonia,Klebsiella pneumonia,25 µg/mL
same,MIC (μg/mL) E. cloacae,Enterobacter cloacae,50 µg/mL
same,MIC (μg/mL) P. mirabilis,Proteus mirabilis,50 µg/mL
same,MIC (μg/mL) C. diversus,Citrobacter diversus,50 µg/mL
PRT511 (CQCNGHSSLCDPETSICQNCQHHTAGDFCERCALGYYGIVKGLPNDCQQ; listed as Homo sapiens),MIC,E. coli DH5α,50 µg/mL
same,MIC against M. catarrhalis,Moraxella catarrhalis,50 µg/mL
same,MIC against S. marcescens,Serratia marcescens,25 µg/mL
same,MIC against A. hydrophila,Aeromonas hydrophila,12.5 µg/mL
same,MIC against E. coli BL21,E. coli BL21,12.5 µg/mL
same,MIC against P. aeruginosa,Pseudomonas aeruginosa,50 µg/mL
same,MIC against P. vulgaris,Proteus vulgaris,12.5 µg/mL
same,MIC against K. pneumonia,Klebsiella pneumonia,12.5 µg/mL
same,MIC against E. cloacae,Enterobacter cloacae,50 µg/mL
same,MIC against P. mirabilis,Proteus mirabilis,25 µg/mL
same,MIC against C. diversus,Citrobacter diversus,25 µg/mL
